Data on 43 compounds can be found in article PMC4336329 (PLoS ONE, 2015).

The campaign covered roughly 310,000 compounds. About 2,200 (0.71%) showed an effect of 50% or more. Effects have a minus sign here. The list shows a part of the results.

Sequence of human ether-à-go-go-related gene (hERG) potassium channel (Q12809 whole entry, looked up): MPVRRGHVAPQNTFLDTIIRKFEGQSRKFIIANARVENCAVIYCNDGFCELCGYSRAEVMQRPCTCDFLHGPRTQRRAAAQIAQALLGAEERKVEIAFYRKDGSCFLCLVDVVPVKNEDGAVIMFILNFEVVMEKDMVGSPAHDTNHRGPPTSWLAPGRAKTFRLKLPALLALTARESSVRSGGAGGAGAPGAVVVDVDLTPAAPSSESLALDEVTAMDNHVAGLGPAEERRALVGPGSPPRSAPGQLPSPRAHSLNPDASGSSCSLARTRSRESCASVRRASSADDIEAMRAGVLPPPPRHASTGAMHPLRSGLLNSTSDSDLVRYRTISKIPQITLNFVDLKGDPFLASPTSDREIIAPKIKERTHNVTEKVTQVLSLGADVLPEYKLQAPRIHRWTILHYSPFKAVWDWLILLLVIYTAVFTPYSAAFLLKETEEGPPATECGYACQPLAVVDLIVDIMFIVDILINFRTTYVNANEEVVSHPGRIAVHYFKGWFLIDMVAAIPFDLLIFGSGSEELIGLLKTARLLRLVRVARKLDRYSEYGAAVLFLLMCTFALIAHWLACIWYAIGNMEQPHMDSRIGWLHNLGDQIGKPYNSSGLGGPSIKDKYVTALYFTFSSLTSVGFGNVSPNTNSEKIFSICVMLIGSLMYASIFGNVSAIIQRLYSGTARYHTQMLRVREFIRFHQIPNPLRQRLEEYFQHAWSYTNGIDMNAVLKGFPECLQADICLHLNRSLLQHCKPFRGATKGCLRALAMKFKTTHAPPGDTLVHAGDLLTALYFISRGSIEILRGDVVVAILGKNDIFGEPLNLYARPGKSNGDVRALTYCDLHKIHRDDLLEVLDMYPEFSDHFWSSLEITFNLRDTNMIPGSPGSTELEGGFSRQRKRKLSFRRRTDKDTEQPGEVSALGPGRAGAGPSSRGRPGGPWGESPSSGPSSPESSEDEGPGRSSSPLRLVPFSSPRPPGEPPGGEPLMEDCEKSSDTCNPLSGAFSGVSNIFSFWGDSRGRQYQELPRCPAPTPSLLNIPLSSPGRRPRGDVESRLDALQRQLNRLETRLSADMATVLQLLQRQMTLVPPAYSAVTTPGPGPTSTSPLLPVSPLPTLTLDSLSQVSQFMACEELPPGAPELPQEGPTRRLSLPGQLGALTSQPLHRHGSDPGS

This assay has as its target human ether-à-go-go-related gene (hERG) potassium channel (human, UniProt Q12809). Briefly: primary screen, population patch clamp on CHO cells stably expressing hERG.
In the case of `CSc1nsc(SC)c1C(=O)OCC(F)(F)F`, the “hERG current change (%, negative = inhibition) at 1uM” value was 14.4%. Regarding `O=C(O)C1CC=CCC1C(=O)Nc1ccccc1C(=O)N1CCN(c2ccc(Cl)cc2)CC1` (stereo not shown), the “hERG current change (%, negative = inhibition) at 1uM” value was 8.6%. The result for `COc1ccc(NC(=O)C2CC(c3cc(OC)c(OC)c(OC)c3)=NO2)cc1OC` (stereo not shown) reads -0.629%; that for `COc1ccc(CCNC(=O)c2cc(S(=O)(=O)N3CCOCC3)ccc2N2CCCC2)cc1OC`, 12.3%; that for `O=C(O)c1ccccc1C(=O)NCCc1c(C(=O)O)[nH]c2ccc(F)cc12`, 0.125%. The result for `CN(Cc1ccccc1)C(=O)COC(=O)CCN1C(=O)C2CC=CCC2C1=O` (stereo not shown) reads 4.12%; that for `Cc1ccc(N(Cc2cc3ccc(C)cc3[nH]c2=O)S(=O)(=O)c2ccccc2)cc1`, 9.61%; that for `CCOC(=O)c1cnc(SCc2cccc(C)c2)nc1N`, -0.141%. For `O=C(c1ccc(F)cc1F)N1CCC(N2CCC(C(=O)N3CCOCC3)CC2)CC1`, the “hERG current change (%, negative = inhibition) at 1uM” value was determined as 9.46%. The result for `CCCOc1ccc(NC(=O)C2OC3OC(C)(C)OC3C3OC(C)(C)OC23)cc1` (stereo not shown) reads 15.5%; that for `CC1Cc2ccccc2N1C(=O)C1CCCN1S(=O)(=O)c1ccc(Cl)cc1` (stereo not shown), 12.4%. The result for `CCOC(=O)C1CCN(C(=O)CNC(=O)c2nn(-c3ccc(OC)c(OC)c3)c(=O)c3ccccc23)CC1` reads 11.3%; that for `CN(C)c1ccc(C(=O)NCc2ccc3c(c2)CCO3)cc1`, 5.08%; that for `CCOc1ccc(-c2c(C(=O)N/N=C/c3ccc(OC)cc3)nnn2-c2nonc2N)cc1`, 8.91%. The result for `CCOP(=S)(OCC)Oc1cc(C)oc(=O)c1` reads 11.8%; that for `O=C(NCC1CCCO1)c1ccc2c(c1)C(=O)N(C1CCCCC1)C2=O` (stereo not shown), 2.04%. Take `O=C(O)c1ccc(N/N=C/c2ccnc3ccccc23)cc1`: the “hERG current change (%, negative = inhibition) at 1uM” value is 12.7%. The result for `O=C(CN1C(=O)NC(Cc2ccccc2)C1=O)Nc1ccc(F)c(Cl)c1` (stereo not shown) reads 14.9%; that for `CCNC(=O)CN(CCc1ccccc1)S(=O)(=O)c1ccc(OC)cc1`, -2.26%. The result for `Cc1ccc(NS(=O)(=O)c2c(C)[nH]c(C)c2C(=O)N2CCCCC2)cc1F` reads 14.9%; that for `CCc1cccc(C)c1NC(=O)COn1nnc2ccc(C(F)(F)F)cc21`, 16.6%; that for `Cc1cccc(NC(=O)CSc2nnc([C@H](C)NC(=O)OC(C)(C)C)o2)c1C`, 7.77%. As for `CCn1ncc([C@@H]2C[C@H]3CN(Cc4cccc(Cl)c4)C(=O)[C@]34CCCN24)c1C`, the “hERG current change (%, negative = inhibition) at 1uM” value came to 8.95%. The result for `Cn1nc(C(=O)Nc2ccc(S(=O)(=O)NCc3ccco3)cc2)c2ccccc2c1=O` reads 7.52%; that for `CN(C)S(=O)(=O)c1ccc(C(=O)OCC2CCCO2)cc1` (stereo not shown), 15.5%; that for `CCCCNC(=O)CCSc1ccc(C)cc1`, 13.2%. For `COc1cccc(NC2c3ccccc3C(=O)N2Cc2ccccc2Cl)c1` (stereo not shown), the “hERG current change (%, negative = inhibition) at 1uM” value was 8.81%. As for `O=C1C(=O)N(CCCc2ccccc2)c2ccccc21`, the “hERG current change (%, negative = inhibition) at 1uM” value was determined as 11.5%. As for `COc1cc(C(=O)NCC(=O)OCC(=O)N2CCc3ccccc32)cc(OC)c1OC`, the “hERG current change (%, negative = inhibition) at 1uM” value amounted to 7.99%.

Turning to `CC(NC(=O)C1CCN(S(=O)(=O)c2cccc3cccnc23)CC1)c1ccccc1` (stereo not shown), the “hERG current change (%, negative = inhibition) at 1uM” value is given as 20.7%.

`CCOc1ccc(OCCn2c(SCC(=O)O)nc3ccccc32)cc1`: the “hERG current change (%, negative = inhibition) at 1uM” value is listed as 10.6%.

For `Cc1ccc(Nc2nc(C(=O)N3CCC(C(=O)NCCN4CCOCC4)CC3)cs2)cc1`, the “hERG current change (%, negative = inhibition) at 1uM” value stood at 6.16%. The value for `OCc1nc2ccccc2n1Cc1ccc(Cl)cc1` was 14.8%; that for `CC(=O)c1ccc(N(CC(=O)NC2CCCCC2)C(=O)c2csnn2)cc1` was 11.1%; that for `Cc1nn(-c2ccccc2)c(N)c1-c1ccccc1` was 14.3%. The value for `COCCn1c(SCC(=O)Nc2ccc3c(c2)CCC3)nc2ccccc2c1=O` was 10.4%; that for `N#Cc1cc(Oc2ccccc2)c(-n2nnc3ccccc32)cc1C#N` was 7.75%. On to `O=C(COC(=O)c1cnccn1)c1ccc(Cl)cc1`, for which the “hERG current change (%, negative = inhibition) at 1uM” value is on record as 25%. The result for `CN(C)c1ccc(/C=N/NC(=O)c2nnn(-c3nonc3N)c2CN2CCCCCC2)cc1` reads 12.8%; that for `Cc1ccc(N=C2NC(=O)CC(C(=O)Nc3ccc4c(c3)OCO4)S2)cc1` (stereo not shown), 18.9%; that for `CCOc1ccc(CC(C(N)=O)C(N)=O)cc1`, -15.8%. The value for `O=C(c1ccc(Br)o1)N1CCN(c2ccc3nnc(-c4ccccc4)n3n2)CC1` was -28.7%; that for `CCC(=O)Nn1cnc2c(c1=O)C1(CCCCC1)Cc1ccccc1-2` was 8.33%.
